We go through two molecules from US20220267438A1 (Janssen / Centocor, published 2022).

The term EC50 denotes the concentration giving half of the maximal effect. As usually defined, the Kd is the free concentration of one partner at which half of the binding sites on the other are occupied at equilibrium, for simple one-to-one binding.

Test [1] concerns the target T1, human GPRC5D (G-protein coupled receptor family C group 5 member D) on cells (human, UniProt Q9NZD1 1-345).
T1 construct: Target on H929 or MM.1R BCMA knockout cells, K562 cells expressing human GPRC5D and HEK293 cells of the cell microarray
T1 sequence (Q9NZD1 whole entry): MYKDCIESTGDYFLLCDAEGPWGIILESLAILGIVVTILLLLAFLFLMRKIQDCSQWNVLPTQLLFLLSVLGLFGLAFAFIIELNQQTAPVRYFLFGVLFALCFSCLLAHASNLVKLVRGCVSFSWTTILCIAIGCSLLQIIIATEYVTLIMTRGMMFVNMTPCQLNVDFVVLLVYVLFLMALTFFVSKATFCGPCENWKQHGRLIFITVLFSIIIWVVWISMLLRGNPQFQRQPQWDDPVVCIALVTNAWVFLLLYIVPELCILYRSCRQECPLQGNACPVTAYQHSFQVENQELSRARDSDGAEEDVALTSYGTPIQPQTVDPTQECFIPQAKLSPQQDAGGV
The test can be described thus: flow cytometry, H929-BCMA-KO cells (GPRC5D arm), 1 h 37C; Run 2. Here is the method:
(§1) Flow cytometry was used to evaluate the BCMA and GPRC5D arm binding of BGCB491 in vitro. BGCB491 and isotype control were tested on a panel of H929-WT, H929-BCMA-KO, H929-GPRC5D-KO, and H929-BCMA/GPRC5D-KO cell lines after 1-hour 37° C. incubation.

Test [2] has as its target T2, human CD3 (CD3ε of the TCR/CD3 complex) on primary human pan T cells (human, UniProt P07766).
T2 construct: whole, on cells; On T cells CD3ε stands in the whole TCR/CD3 complex
The test is described as follows: flow cytometry, T cells; fixed point extrapolation because curves were unsaturated at 2 µM.

In test [3] the target is T3, CD3W200, recombinant CD3εγ heterodimer construct (human, UniProt P07766 22-118; P09693 23-103).
T3 construct: also called human CD3 (SPR antigen for BGCB491)
The test is described as follows: SPR; antigen recombinant CD3εγ heterodimer construct (CD3W200).

Test [4] concerns the target T4, BCMW37 (recombinant human BCMA antigen) (human, UniProt Q02223 1-54, limits assumed).
T4 construct: also called BCMA BCMW37 chain; human BCMA (SPR antigen)
T4 sequence (looked up): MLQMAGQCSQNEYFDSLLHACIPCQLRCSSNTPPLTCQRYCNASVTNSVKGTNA
The test is described as follows: SPR, BCMA binding after pH 8.5 stress. (In general: In SPR one partner is held on a chip, and binding of the other changes the refractive index at the surface.)

The target of test [5] is T5, human BCMA (B cell maturation antigen, TNFRSF17) on cells (human, UniProt Q02223 1-184).
T5 construct: whole, on cells; Target on H929 or MM.1R GPRC5D knockout cells, K562 cells expressing human BCMA, HEK293 cells of the cell microarray, and BCMA-only lymphoma lines; also called CD269; surface BCMA
T5 sequence (looked up): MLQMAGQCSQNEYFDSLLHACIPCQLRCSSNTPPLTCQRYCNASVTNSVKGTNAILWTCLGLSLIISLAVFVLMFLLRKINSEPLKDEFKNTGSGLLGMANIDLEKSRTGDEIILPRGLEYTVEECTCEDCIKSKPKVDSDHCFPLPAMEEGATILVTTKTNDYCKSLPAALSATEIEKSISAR
The test is described as follows: flow cytometry, H929-GPRC5D-KO cells (BCMA arm), 1 h 37C; Run 5. How it is done: as §1
A general note: Flow cytometry measures light scatter and fluorescence of single cells or particles in a stream.

In test [6] the target is T3, CD3W200, recombinant CD3εγ heterodimer …. The test is described as follows: SPR, CD3 binding after pH 3.5 stress.
For test [7], the target named is T6, cynomolgus GPRC5D on K562 cells (cynomolgus monkey).
T6 construct: whole, on cells; also called cyno GPRC5D
The test can be described thus: flow cytometry, K562 cells expressing cynomolgus against human GPRC5D, 1 h 37C. How it is done: FIGS. 9A-E. BGCB463 (circles) or negative control B23B251 (triangles) were all incubated with K562 cells expressing human GPRC5D (FIG. 9A), human BCMA (FIG. 9B), cynomolgus GPRC5D (FIG. 9C) or cynomolgus BCMA (FIG. 9D) for 1 hr at 37° C. at a starting concentration of 2 μM. After secondary detection with AF647-anti-human IgG, the MFI signal was analyzed to generate an EC₅₀ and EC₉₀ (FIG. 9E). Data are representative of two independent experiments.
The GPRC5D (i.e., GC5B680) and BCMA binding arms were assessed for cross-reactivity to cynomolgus monkey as part of the BGCB463 molecule, which uses the identical binding arms as BGCB491. Cross reactivity to cynomolgus monkeys was profiled for both target-binding scFv arms using FACS-based cell binding at 37° C. for 1 hour with K562 stably expressing human or cynomolgus monkey GPRC5D or BCMA. The cell-based EC₅₀ value for the GC5B680 scFv arm was approximately 30 nM against human GPRC5D-expressing cells and about 10-fold weaker (approximately 400 nM) on cynomolgus monkey GPRC5D-expressing cells.

Test [8] deals with T5, human BCMA (B cell maturation antigen, …). The test is described as follows: flow cytometry, H929 GPRC5D KO cells, 1 h 37C; Run 3. How it is done: First, FACS-based binding for GPRC5D and BCMA binding arms of the trispecific molecule was determined by measuring the effective concentration (EC) range from a dose-response curve using a 4-parameter fit at 37° C. for 1 hr. This was assessed using an H929 suite of cells (WT, GPRC5D-KO, BCMA-KO, and GPRC5D/BCMA KO), and a similar MM.1R suite. Cell based EC₅₀ is approximately 13 nM for WT H929 (FIGS. 2A-2D, Table 7) and 2.4 nM for WT MM.1R (FIGS. 3A-3D, Table 8). A clear avidity affect is observed as EC₅₀ and Bmax are both reduced in GPRC5D-KO and BCMA-KO lines which test monovalent binding of target binding arms (Table 7). Next, cell-based EC₅₀ was determined for the CD3-binding Fab arm using purified Pan T cells from three random donors. […] Next, dose responsive binding was assessed at 4° C. to remove any potential biological effects. As shown in FIGS. 5A-5C, binding is stronger (50-100 nM) at 4° C., compared to 37° C., which may indicate internalization. Additionally, two expression lots of BGCB463 (BGCB463.003 from transient transfection and BGCB463.004 from a stable transfection pool), were directly compared with binding to H929, MM.1R, and Pan T cells and no differences were noted (FIGS. 6A-6C).

Test [9] deals with T1, human GPRC5D (G-protein coupled …). The test can be described thus: flow cytometry, K562 cells expressing human GPRC5D, 1 h 37C.
Test [10] deals with T2, human CD3 (CD3ε of the TCR/CD3 complex) …. The test can be described thus: flow cytometry, human pan T cells, Donor 2, 1 h 37C; Run 3. Here is the method:
For binding of BGCB463 to human and cynomolgus Pan T cells, three human donors (Hemacare) were selected, quickly thawed, resuspended, and aliquoted into a 96-well plate at 1×10⁶ cells/mL. Cells were then washed, Fc blocked if necessary (Innovex), and stained with viability dye (Invitrogen). BGCB463 and its corresponding isotype (B23B251) were diluted in complete media to an initial concentration of 2 μM and 1:3 serial dilutions in duplicate were performed for a dose-response curve. The cells were incubated with molecules at 4° C. or 37° C. for 1 hour. When necessary, incubation with 90% human serum (Sigma) was also performed as described above.
First, FACS-based binding for GPRC5D and BCMA binding arms of the trispecific molecule was determined by measuring the effective concentration (EC) range from a dose-response curve using a 4-parameter fit at 37° C. for 1 hr. This was assessed using an H929 suite of cells (WT, GPRC5D-KO, BCMA-KO, and GPRC5D/BCMA KO), and a similar MM.1R suite. Cell based EC₅₀ is approximately 13 nM for WT H929 (FIGS. 2A-2D, Table 7) and 2.4 nM for WT MM.1R (FIGS. 3A-3D, Table 8). […] Next, cell-based EC₅₀ was determined for the CD3-binding Fab arm using purified Pan T cells from three random donors. […] Next, dose responsive binding was assessed at 4° C. to remove any potential biological effects. […]

B1: BGCB491 (other)
heavy: QVQLQQSGPRLVRPSQTLSLTCAISGDSVFNNNAAWSWIRQSPSRGLEWLGRTYYRSKWLYDYAVSVKSRITVNPDTSRNQFTLQLNSVTPEDTALYYCARGYSSSFDYWGQGTLVTVSSASTKGPSVFPLAPSSKSTSGGTAALGCLVKDYFPEPVTVSWNSGALTSGVHTFPAVLQSSGLYSLSSVVTVPSSSLGTQTYICNVNHKPSNTKVDKKVEPKSCDKTHTCPPCPAPEAAGGPSVFLFPPKPKDTLMISRTPEVTCVVVSVSHEDPEVKFNWYVDGVEVHNAKTKPREEQYNSTYRVVSVLTVLHQDWLNGKEYKCKVSNKALPAPIEKTISKAKGQPREPQVYTLPPSREEMTKNQVSLSCAVKGFYPSDIAVEWESNGQPENNYKTTPPVLDSDGSFFLVSKLTVDKSRWQQGNVFSCSVMHEALHNRFTQKSLSLSPGKGGGGSGGGGSGGGGSGGGGS[letters of about 100 residues not shown]QFPHTFGQGTKLEIKGGSEGKSSGSGSESKSTGGSQVTLKESGPVLVKPTETLTLTCTVSGFSLTNIRMSVSWIRQPPGKALEWLAHIFSNDEKSYSTSLKSRLTISRDTSKSQVVLTLTNVDPVDTATYYCARMRLPYGMDVWGQGTTVTVSS
light: QSALTQPASVSGSPGQSITISCTGTSSNIGTYKFVSWYQQHPDKAPKVLLYEVSKRPSGVSSRFSGSKSGNTASLTISGLQAEDQADYHCVSYAGSGTLLFGGGTKLTVLGQPKAAPSVTLFPPSSEELQANKATLVCLISDFYPGAVTVAWKADSSPVKAGVETTTPSKQSNNKYAASSYLSLTPEQWKSHRSYSCQVTHEGSTVEKTVAPTECS
chain: EIVLTQSPGTLSLSPGERATLSCRASQSISSSFLTWYQQKPGQAPRLLIYGASSRATGIPDRFSGGGSGTDFTLTISRLEPEDFAVYYCQHYGSSPMYTFGQGTKLEIKGGSEGKSSGSGSESKSTGGS[letters of about 100 residues not shown]DEGYSSGHYYGMDVWGQGTTVTVSSEPKSSDKTHTCPPCPAPEAAGGPSVFLFPPKPKDTLMISRTPEVTCVVVSVSHEDPEVKFNWYVDGVEVHNAKTKPREEQYNSTYRVVSVLTVLHQDWLNGKEYKCKVSNKALPAPIEKTISKAKGQPREPQVYTLPPSREEMTKNQVSLWCLVKGFYPSDIAVEWESNGQPENNYKTTPPVLDSDGSFFLYSKLTVDKSRWQQGNVFSCSVMHEALHNHYTQKSLSLSPGK
notes: Trispecific IgG1 antibody (L234A, L235A, D265S); Heavy chain 1 = anti-CD3 (CD3B376) Fab heavy chain, hole and RF mutations, with C-terminal anti-GPRC5D scFv (GC5B680); Heavy chain 2 = anti-BCMA scFv (BCMB519) - Fc knob; also called JNJ-79635322; BCMA×GPRC5D×CD3 trispecific mAb
Consider B1, for which the EC50 in [1] is 66 nM; in test [2] it was 3400 nM; in [5], 53 nM. In addition, the figures for the Kd in test [3], in test [4] and in test [6] were 25 nM, 0.16 nM and 21.7 nM, respectively.

B2: BGCB463 (other)
heavy: QVQLQQSGPRLVRPSQTLSLTCAISGDSVFNNNAAWSWIRQSPSRGLEWLGRTYYRSKWLYDYAVSVKSRITVNPDTSRNQFTLQLNSVTPEDTALYYCARGYSSSFDYWGQGTLVTVSSASTKGPSVFPLAPSSKSTSGGTAALGCLVKDYFPEPVTVSWNSGALTSGVHTFPAVLQSSGLYSLSSVVTVPSSSLGTQTYICNVNHKPSNTKVDKKVEPKSCDKTHTCPPCPAPEAAGGPSVFLFPPKPKDTLMISRTPEVTCVVVSVSHEDPEVKFNWYVDGVEVHNAKTKPREEQYNSTYRVVSVLTVLHQDWLNGKEYKCKVSNKALPAPIEKTISKAKGQPREPQVYTLPPSREEMTKNQVSLSCAVKGFYPSDIAVEWESNGQPENNYKTTPPVLDSDGSFFLVSKLTVDKSRWQQGNVFSCSVMHEALHNRFTQKSLSLSPGK
light: QSALTQPASVSGSPGQSITISCTGTSSNIGTYKFVSWYQQHPDKAPKVLLYEVSKRPSGVSSRFSGSKSGNTASLTISGLQAEDQADYHCVSYAGSGTLLFGGGTKLTVLGQPKAAPSVTLFPPSSEELQANKATLVCLISDFYPGAVTVAWKADSSPVKAGVETTTPSKQSNNKYAASSYLSLTPEQWKSHRSYSCQVTHEGSTVEKTVAPTECS
chain: [letters of about 100 residues not shown]QFPHTFGQGTKLEIKGGSEGKSSGSGSESKSTGGSQVTLKESGPVLVKPTETLTLTCTVSGFSLTNIRMSVSWIRQPPGKALEWLAHIFSNDEKSYSTSLKSRLTISRDTSKSQVVLTLTNVDPVDTATYYCARMRLPYGMDVWGQGTTVTVSSEPKSSDKTHTCPPCPAPEAAGGPSVFLFPPKPKDTLMISRTPEVTCVVVSVSHEDPEVKFNWYVDGVEVHNAKTKPREEQYNSTYRVVSVLTVLHQDWLNGKEYKCKVSNKALPAPIEKTISKAKGQPREPQVYTLPPSREEMTKNQVSLWCLVKGFYPSDIAVEWESNGQPENNYKTTPPVLDSDGSFFLYSKLTVDKSRWQQGNVFSCSVMHEALHNHYTQKSLSLSPGKGGSEGKSSGSGSESKSTGGSEIVLTQSPGTLSLSPGERATLSCRASQSISSSFLTWYQQKPGQAPRLLIYGASSRATGIPDRFSGGGSGTDFTLTISRLEPEDFAVYYCQHYGSSPMYTFGQGTKLEIKGGSEGKSSGSGSESKSTGGS[letters of about 100 residues not shown]DEGYSSGHYYGMDVWGQGTTVTVSS
notes: Trispecific IgG1 antibody (L234A, L235A, D265S); Heavy chain 1 = anti-CD3 (CD3B376) Fab heavy chain with hole and RF mutations; also called BGCB463.003; BGCB463.004
Turning to B2, in test [7], the “fold weaker than on human GPRC5D” value was approximately 10 fold. The EC50 was 221 nM in [8], approximately 30 nM in test [9] and 262 nM in [10].
